Source: the supplement of paper PMC4967469

Tests used:
Assay in all cases: Viability of human cancer cell lines after 72 h of drug (GDSC screen)
Trametinib = compound: CC(=O)Nc1cccc(-n2c(=O)n(C3CC3)c(=O)c3c(Nc4ccc(I)cc4F)n(C)c(=O)c(C)c32)c1 [Trametinib]; details: top dose 1 µM
Protocol: (§1)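 Human cancer cell lines in 384-well plates, medium with 10% serum, drug for 72 h over a 256-fold dose range (nine 2-fold or five 4-fold steps up to the top dose). Adherent lines were fixed and stained with the nucleic acid dye Syto60, suspension lines read with resazurin; signal relative to control wells, capped at 0 and 100%. One two-parameter sigmoid per drug and line, fitted in a mixed model over all curves with the slope shared within a line.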

HG-6-64-1 = compound: CCN1CCN(Cc2ccc(NC(=O)c3ccc(C)c(/C=C/c4cnc5[nH]ccc5c4OC)c3)cc2C(F)(F)F)CC1 [HG-6-64-1]; details: top dose 5.12 µM; top dose inferred
Protocol: as §1

I-BET-762 = compound: CCNC(=O)C[C@@H]1N=C(c2ccc(Cl)cc2)c2cc(OC)ccc2-n2c(C)nnc21 [I-BET-762]; details: top dose 20 µM; top dose inferred
Protocol: as §1

PF-4708671 = compound: CCc1cncnc1N1CCN(Cc2nc3ccc(C(F)(F)F)cc3[nH]2)CC1 [PF-4708671]; details: top dose 10 µM; top dose inferred
Protocol: as §1

AV-951 = compound: COc1cc2nccc(Oc3ccc(NC(=O)Nc4cc(C)on4)c(Cl)c3)c2cc1OC [AV-951]; details: top dose 0.128 µM; top dose inferred
Protocol: as §1

KIN001-244 = compound: O=C(NC(COc1ccc2[nH]c(=O)[nH]c2c1)c1ccccc1)c1cccn(Cc2ccc(F)c(F)c2)c1=O [KIN001-244]; details: top dose 20 µM; top dose inferred
Protocol: as §1

Row | Cell Line | AUC (Trametinib) | IC50 (Trametinib) [µM] | AUC (HG-6-64-1) | IC50 (HG-6-64-1) [µM] | AUC (I-BET-762) | IC50 (I-BET-762) [µM] | AUC (PF-4708671) | IC50 (PF-4708671) [µM] | AUC (AV-951) | IC50 (AV-951) [µM] | AUC (KIN001-244) | IC50 (KIN001-244) [µM]
1 | NCI-H441 (lung adenocarcinoma, adherent) | 0.595 | 0.127 | 0.894 | > 5.12 | 0.97 | > 20 | 0.975 | > 10 | 0.979 | > 0.128 | 0.932 | > 20
2 | NCI-H460 (large cell lung carcinoma, adherent) | 0.833 | 0.559 | 0.791 | 2.05 | 0.99 | > 20 | 0.945 | > 10 | 0.99 | > 0.128 | 0.928 | > 20
3 | NCI-H520 (lung squamous cell carcinoma, adherent) | 0.945 | > 1 | 0.657 | 0.887 | 0.9 | > 20 | 0.969 | > 10 | 0.967 | > 0.128 | 0.664 | 3.62
4 | NCI-H522 (lung adenocarcinoma, adherent) | 0.885 | > 1 | 0.492 | 0.302 | 0.984 | > 20 | 0.934 | > 10 | 0.982 | > 0.128 | 0.93 | > 20
5 | NCI-H596 (lung adenocarcinoma, adherent) | 0.816 | 0.776 | 0.83 | 4.61 | 0.899 | > 20 | 0.937 | > 10 | 0.97 | > 0.128 | 0.906 | > 20
6 | NCI-H630 (large intestine, adherent) | 0.745 | 0.336 | 0.892 | > 5.12 | 0.872 | > 20 | 0.988 | > 10 | 0.988 | > 0.128 | 0.92 | > 20
7 | NCI-H647 (non-small cell lung carcinoma, adherent) | 0.926 | > 1 | 0.825 | 3.27 | 0.961 | > 20 | 0.955 | > 10 | 0.975 | > 0.128 | 0.864 | 18.9
8 | NCI-H650 (lung adenocarcinoma, adherent) | 0.859 | 0.969 | 0.876 | > 5.12 | 0.914 | > 20 | 0.974 | > 10 | 0.984 | > 0.128 | 0.892 | > 20
9 | NCI-H661 (large cell lung carcinoma, adherent) | 0.864 | > 1 | 0.751 | 2.01 | 0.873 | > 20 | 0.827 | 7.87 | 0.98 | > 0.128 | 0.943 | > 20
10 | NCI-H727 (lung carcinoid, adherent) | 0.365 | 0.0207 | 0.62 | 0.852 | 0.875 | > 20 | 0.959 | > 10 | 0.972 | > 0.128 | 0.933 | > 20
11 | NCI-H810 (large cell lung carcinoma, adherent) | 0.982 | > 1 | 0.762 | 1.75 | 0.847 | 13.8 | 0.972 | > 10 | 0.987 | > 0.128 | 0.848 | 13.9
12 | NCI-H841 (small cell lung carcinoma, adherent) | 0.908 | > 1 | 0.928 | > 5.12 | 0.987 | > 20 | 0.936 | > 10 | 0.988 | > 0.128 | 0.9 | > 20
13 | NCI-H1048 (small cell lung carcinoma, adherent) | 0.981 | > 1 | 0.861 | 3.64 | 0.954 | > 20 | 0.944 | > 10 | 0.985 | > 0.128 | 0.488 | 1.16
14 | NCI-H1299 (large cell lung carcinoma, adherent) | 0.423 | 0.0365 | 0.758 | 2.15 | 0.909 | > 20 | 0.97 | > 10 | 0.981 | > 0.128 | 0.889 | > 20
15 | NCI-H1435 (lung adenocarcinoma, semi-adherent) | 0.99 | > 1 | 0.945 | > 5.12 | 0.992 | > 20 | 0.984 | > 10 | 0.993 | > 0.128 | 0.925 | > 20
16 | NCI-H1437 (lung adenocarcinoma, adherent) | 0.436 | 0.0416 | 0.909 | > 5.12 | 0.913 | > 20 | 0.961 | > 10 | 0.981 | > 0.128 | 0.923 | > 20
17 | NCI-H1563 (lung adenocarcinoma, adherent) | 0.718 | 0.295 | 0.868 | > 5.12 | 0.925 | > 20 | 0.975 | > 10 | 0.976 | > 0.128 | 0.84 | 17.8
18 | NCI-H1568 (lung adenocarcinoma, adherent) | 0.516 | 0.0698 | 0.806 | 3.42 | 0.981 | > 20 | 0.895 | > 10 | 0.976 | > 0.128 | 0.973 | > 20
19 | NCI-H1573 (lung adenocarcinoma, adherent) | 0.776 | 0.388 | 0.986 | > 5.12 | 0.977 | > 20 | 0.981 | > 10 | 0.99 | > 0.128 | 0.959 | > 20
20 | NCI-H1623 (lung adenocarcinoma, adherent) | 0.672 | 0.211 | 0.982 | > 5.12 | 0.97 | > 20 | 0.901 | > 10 | 0.984 | > 0.128 | 0.906 | > 20

Row | Cell Line | AUC (Trametinib) | IC50 (Trametinib) [µM] | AUC (HG-6-64-1) | IC50 (HG-6-64-1) [µM] | AUC (I-BET-762) | IC50 (I-BET-762) [µM] | AUC (PF-4708671) | IC50 (PF-4708671) [µM] | AUC (AV-951) | IC50 (AV-951) [µM] | AUC (KIN001-244) | IC50 (KIN001-244) [µM]
21 | NCI-H1651 (lung adenocarcinoma, adherent) | 0.937 | > 1 | 0.781 | 2.31 | 0.962 | > 20 | 0.845 | 8.08 | 0.987 | > 0.128 | 0.977 | > 20
22 | NCI-H1688 (small cell lung carcinoma, adherent) | 0.947 | > 1 | 0.871 | > 5.12 | 0.972 | > 20 | 0.963 | > 10 | 0.979 | > 0.128 | 0.831 | 14.4
23 | NCI-H1693 (lung adenocarcinoma, adherent) | 0.637 | 0.188 | 0.942 | > 5.12 | 0.837 | > 20 | 0.868 | > 10 | 0.97 | > 0.128 | 0.938 | > 20
24 | NCI-H1703 (lung adenocarcinoma, adherent) | 0.976 | > 1 | 0.726 | 1.65 | 0.981 | > 20 | 0.976 | > 10 | 0.75 | 0.0502 | 0.923 | > 20
25 | NCI-H1755 (lung adenocarcinoma, adherent) | 0.764 | 0.418 | 0.659 | 0.955 | 0.656 | 3.65 | 0.908 | > 10 | 0.984 | > 0.128 | 0.805 | 12.1
26 | NCI-H1781 (lung adenocarcinoma, adherent) | 0.868 | 0.915 | 0.986 | > 5.12 | 0.988 | > 20 | 0.981 | > 10 | 0.989 | > 0.128 | 0.881 | > 20
27 | NCI-H1792 (lung adenocarcinoma, adherent) | 0.269 | 0.0149 | 0.609 | 0.617 | 0.99 | > 20 | 0.987 | > 10 | 0.985 | > 0.128 | 0.962 | > 20
28 | NCI-H1793 (lung adenocarcinoma, adherent) | 0.766 | 0.526 | 0.688 | 1.34 | 0.981 | > 20 | 0.928 | > 10 | 0.982 | > 0.128 | 0.952 | > 20
29 | NCI-H1915 (large cell lung carcinoma, adherent) | 0.175 | 0.00637 | 0.799 | 2.5 | 0.953 | > 20 | 0.988 | > 10 | 0.984 | > 0.128 | 0.914 | > 20
30 | NCI-H1944 (lung adenocarcinoma, adherent) | 0.624 | 0.141 | 0.79 | 2.45 | 0.895 | > 20 | 0.952 | > 10 | 0.984 | > 0.128 | 0.861 | 18.8
31 | NCI-H1993 (lung adenocarcinoma, adherent) | 0.652 | 0.189 | 0.944 | > 5.12 | 0.94 | > 20 | 0.945 | > 10 | 0.977 | > 0.128 | 0.884 | > 20
32 | NCI-H2009 (lung adenocarcinoma, adherent) | 0.624 | 0.14 | 0.734 | 1.55 | 0.947 | > 20 | 0.986 | > 10 | 0.986 | > 0.128 | 0.942 | > 20
33 | NCI-H2023 (lung adenocarcinoma, adherent) | 0.559 | 0.0942 | 0.935 | > 5.12 | 0.974 | > 20 | 0.98 | > 10 | 0.981 | > 0.128 | 0.942 | > 20
34 | NCI-H2029 (small cell lung carcinoma, adherent) | 0.989 | > 1 | 0.986 | > 5.12 | 0.974 | > 20 | 0.991 | > 10 | 0.992 | > 0.128 | 0.908 | > 20
35 | NCI-H2085 (lung adenocarcinoma, adherent) | 0.897 | > 1 | 0.778 | 2.26 | 0.949 | > 20 | 0.987 | > 10 | 0.985 | > 0.128 | 0.804 | 11
36 | NCI-H2087 (lung adenocarcinoma, semi-adherent) | 0.298 | 0.0161 | 0.699 | 1.22 | 0.949 | > 20 | 0.98 | > 10 | 0.985 | > 0.128 | 0.899 | > 20
37 | NCI-H2110 (non-small cell lung carcinoma, adherent) | 0.777 | 0.411 | 0.773 | 2.04 | 0.899 | > 20 | 0.939 | > 10 | 0.984 | > 0.128 | 0.667 | 3.69
38 | NCI-H2122 (lung adenocarcinoma, adherent) | 0.17 | 0.00683 | 0.907 | > 5.12 | 0.987 | > 20 | 0.989 | > 10 | 0.989 | > 0.128 | 0.976 | > 20
39 | NCI-H2170 (lung squamous cell carcinoma, adherent) | 0.971 | > 1 | 0.929 | > 5.12 | 0.962 | > 20 | 0.949 | > 10 | 0.987 | > 0.128 | 0.976 | > 20
40 | NCI-H2172 (non-small cell lung carcinoma, adherent) | 0.931 | > 1 | 0.951 | > 5.12 | 0.911 | > 20 | 0.896 | > 10 | 0.979 | > 0.128 | 0.952 | > 20

IC50 is the fitted dose that halves viability relative to control wells, and lower means more sensitive; fits outside the tested doses are given as limits. The AUC spans the tested range (256-fold, ending at the top dose) of the same fit; it is 1 without any effect and falls as sensitivity rises. For part of these data: Any top dose called inferred is not printed in the source and was worked back from the curve model.
